T1: UNK ZnF1-3 (human, UniProt Q9C0B0 31-174)
T1 sequence: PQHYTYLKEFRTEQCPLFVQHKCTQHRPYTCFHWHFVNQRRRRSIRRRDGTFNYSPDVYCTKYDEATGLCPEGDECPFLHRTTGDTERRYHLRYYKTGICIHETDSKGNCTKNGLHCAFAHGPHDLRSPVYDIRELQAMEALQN

B1: chr11:77336104:77336105:-_ENSG00000074201_ENST00000525064|hu_mus|hu_hu_hu_mus_False|8_98 (ssRNA)
RNA: GGGAGUUCUACAGUCCGACGAUCCUCACACAUUGCUGUGAACAUUGCCUCCAAUGCUGACUUAUCACUGGGCACAAAUCGAAAUUCAGAAAUGGGUUCAACAUCAUCAUUGUCUUCCUCAUCUUCAUCAUCAGCAAGUUCUUUCAACAGAGGAUUGAGCAUCA
B2: chr3:95999270:95999271:+_ENSMUSG00000038486_ENSMUST00000035371|mus_hu|FALSE|FALSE (ssRNA)
RNA: GGGAGUUCUACAGUCCGACGAUCCCCUCCCAGGGGUGCGAGGAAGAGGGCUACGUCCAGCAUGUGGGGAGUGAGGGACAAGGGCACAGGGCACACACUCAUACACUGGGCACUGGAGAAGGCAGUCUUUUGAGCACAGACACCCAACAGAGGAUUGAGCAUCA
B3: chr4:33332862:33332863:-_ENSMUSG00000040128_ENSMUST00000049357|mus_mus|FALSE|FALSE (ssRNA)
RNA: GGGAGUUCUACAGUCCGACGAUCUAUAUACAAAACACCACCACAGCUGCAGGGCAAAAUACAUACUUUCAUAACAAAACUAUAAUGUCCUCUCAAGUAUGAACAAUGUACACAUAAUACAUGGUAUACAGUAUUUACAAAAUACAACAGAGGAUUGAGCAUCA
B4: chr12:48459454:48459455:-_ENSG00000079387_ENST00000551330|hu_hu|motif|central (ssRNA)
RNA: GGGAGUUCUACAGUCCGACGAUCUGCCUUCUGUUCUUCAAUCUGGCGCAAUCUUUCUCGUGCUCGAGAAUCAUAAACACGGGUUAAUUCUUUGAUCCACAGCUCUGCCUGGAAGAAAGUAGAACUGGGAGUUGGAGUCUGGGACAACAGAGGAUUGAGCAUCA
B5: chr2:104430758:104430759:+_ENSMUSG00000027176_ENSMUST00000028599|mus_mus|FALSE|FALSE (ssRNA)
RNA: GGGAGUUCUACAGUCCGACGAUCGGGACUACAACGUACGCACCAGCCGGCAAAGGGAAGCUAGAAAAGGAAAAUUAAACUAAAGGCAAACCCCACCAAAACCAGGAACACUACCCCUGUCCCUCAGAGCCAAAGCCGCCGCCACAACAGAGGAUUGAGCAUCA
B6: 75265068_75276136_4124_CDS_ENSG00000166348_ENST00000408019|human|control|control (ssRNA)
RNA: GGGAGUUCUACAGUCCGACGAUCAGAAGUACGCACUGUUCUGGCUUCAUGGAGACCAUGCUCCAUUUCUGCUGUUGAAGUCUUUGAGAGACCAGGAUCAUGGGCUGAGUGCAACCUCCUCCCCAUGCCAUCUGCAGAGCCUGUCAACAGAGGAUUGAGCAUCA
B7: 13947493_13955163_841_3pUTR_ENSMUSG00000068036_ENSMUST00000139666|mouse|control|control (ssRNA)
RNA: GGGAGUUCUACAGUCCGACGAUCGUUUUAAACUAUCUGCAUAUAUCCUCAGUGUUCCACCUGAGUCAGGCCGCCCAUCUGAGCUCCGAAACUCUUGCAUUCUCUUCUCCAGUUUUUGCUGCCGCCGCCGUUUCAUGACAACUUCAACAGAGGAUUGAGCAUCA
B8: chr3:119450855:119450856:-_ENSMUSG00000028134_ENSMUST00000029780|mus_hu|mus_mus_mus_hu_False|58_98 (ssRNA)
RNA: GGGAGUUCUACAGUCCGACGAUCUGUGGUGCCACUAAGAGGUGUAUUUGCUGUCUGGACAGCUGUCACAGCUUGAAGAACUACUUGAGCACGUUGGUUUAAUGUAUUAUCUGUCUUUAGUUCUUUGUGAUUCGAGUACUGGAUCAACAGAGGAUUGAGCAUCA
B9: chr5:38546887:38546888:-_ENSMUSG00000029126_ENSMUST00000031009|mus_mus|motif|central (ssRNA)
RNA: GGGAGUUCUACAGUCCGACGAUCGACCAGCACGGAGACCUUAAACCUCUCGGUGACACCCUCGGUGAUGCUGACGGUGAACUCGGCGGUCUUGGGAGGACGUGCUUUUCCUUUUUUGCGAUCAGGUUCAUAUUCAGUCUUAGUCAACAGAGGAUUGAGCAUCA
B10: chr1:163117127:163117128:-_ENSG00000143248_ENST00000313961|hu_mus|hu_hu_hu_mus_False|1_38 (ssRNA)
RNA: GGGAGUUCUACAGUCCGACGAUCUGCUACAAAGGAUGUAACUCAACUCACAGGGCAACUUUUGGAAGCCUGACCAGAUGACUACUUGAUUAGCUCCUGAUAAAACUCAGAGCGCACAAAGCGGGGCAGAGAAUCCUUUUCCAUCAACAGAGGAUUGAGCAUCA
B11: chr19:16406628:16406629:+_ENSMUSG00000024639_ENSMUST00000025541|mus_mus|motif|central (ssRNA)
RNA: GGGAGUUCUACAGUCCGACGAUCGACACUUUGUAAGUCAAAGGGGUAUUCGAUGAUCCCUGUAGUGGGGACUCGAACUCGGAGCACGUCUUGUUGUGUAGGCAGAUAGGAAGGGUCGGCUACACGGUCCAAGUCAUUCAGAUACAACAGAGGAUUGAGCAUCA
B12: 204494676_204495559_252_CDS_ENSG00000198625_ENST00000367182|human|control|control (ssRNA)
RNA: GGGAGUUCUACAGUCCGACGAUCUUUAACAGUGAACAUUUCACCUUGCGCACCUGCUGCAUGCAAAAUCUUCAAAAGCGGCAGUUUUGGUCGUACCUGAUUGAUUUGUCCAGGAGAGAUCCUGCAAGCACUGUCAGAUGUUGACAACAGAGGAUUGAGCAUCA
B13: chrX:140365796:140365797:-_ENSMUSG00000031285_ENSMUST00000033642|mus_mus|mus_mus_mus_hu_False|8_48 (ssRNA)
RNA: GGGAGUUCUACAGUCCGACGAUCCUUCUCAUUACUCAGUGCCUGCAAGGUUCUGGUUCGGUAGAAGCUACAGUGGGCGCUGUGAGUGGGACUUGGAAACCCAUUCAUCCGGGAGCCUCGCAUGUUCCUAGAUGCUUUAUCUCUCAACAGAGGAUUGAGCAUCA
B14: chr4:88367131:88367132:-_ENSMUSG00000070923_ENSMUST00000094993|mus_mus|motif|central (ssRNA)
RNA: GGGAGUUCUACAGUCCGACGAUCUUGGUAAUUGCUUGCUUCCAAAAGUAAAUUCACACAGGUAUUGUCUGUUCUCAUGAAAUCGGCUGUCUGCACAUAGUUGAUGAGAUCCUGUGGUGUCAUCAGUGGAAAGCGAAUAUUCUUCAACAGAGGAUUGAGCAUCA
B15: chr5:135702403:135702404:+_ENSMUSG00000002748_ENSMUST00000002825|mus_mus|FALSE|FALSE (ssRNA)
RNA: GGGAGUUCUACAGUCCGACGAUCGUCACACAGGAACCAUAAGUUUUGUCCUUGCUUGGGCACAGUGGUCUCCACAGCUUCUAGUGCUGGUCCAUGGUGCGCAUUCACACUUGCAUUCUUGCCUAGGUUUGCUUUCUUACUUCGCAACAGAGGAUUGAGCAUCA
B16: 43530377_43532656_477_3pUTR_ENSG00000166913_ENST00000353703|human|control|control (ssRNA)
RNA: GGGAGUUCUACAGUCCGACGAUCAUAAGAUAUUUGUCCAACAGCUCCAGAACAUCAUUGCAGAUGUCCUGCAGUUCUGCCUCUAUCUUCUCACGGUACUCUUUGCCCAUCUGCUGCUUCUUCUCAUUCCUCUCUGUUUUCUGCCAACAGAGGAUUGAGCAUCA
B17: chr11:108043965:108043966:-_ENSG00000149308_ENST00000278612|hu_mus|FALSE|FALSE (ssRNA)
RNA: GGGAGUUCUACAGUCCGACGAUCGUUAUCUUGGCAAUCUGCUUGUGGCUGUGCAGCAGCUGGCGAUACAGUGUUAGUCUCAGUUUUCCUGUUUGCAGUUUCACUAGAGUCUGCUGACUCAGAAGCCUGAGGAUUAGUUUUAACCAACAGAGGAUUGAGCAUCA
B18: chr7:7679991:7679992:-_ENSG00000106399_ENST00000396682|hu_hu|hu_hu_hu_mus_False|18_98 (ssRNA)
RNA: GGGAGUUCUACAGUCCGACGAUCUGGGAUGAAUCUUUUCCAGCCUCCCCACGAAGCACACGGGCCGGUCGAUAUACUGUGGUAACAUGCUGGCGUUGACGCGCGCUUUGGGGAGCUCCAUCAUGUCCUCCAUGAUUCUGCCGCCAACAGAGGAUUGAGCAUCA
B19: chr2:127988141:127988142:+_ENSMUSG00000027381_ENSMUST00000110341|mus_mus|FALSE|FALSE (ssRNA)
RNA: GGGAGUUCUACAGUCCGACGAUCUGUCAAAAUUCAUCAGUGCAAAACGUAAAGGAAGCCAGGGAAACUGCAAUACAAAUGCUACAUACGCUGGGUUCUGACAUUAGUGAUGGGGACUAUACAGAGAUCAGUGCUGUUCACUAACAACAGAGGAUUGAGCAUCA
B20: chr16:18804634:18804635:-_ENSG00000170540_ENST00000304414|hu_hu|FALSE|FALSE (ssRNA)
RNA: GGGAGUUCUACAGUCCGACGAUCGUUUUUCUUUUCUUUUUGUUUGAGAAGUUUGUUUAUCUCCCUCUUGGCCAUUCCAAUGUACUUCAAAAUGAUUCCAUGUUGGUUUAGUCCAGGAAGCAAUAGUAAGGAAGUCACUAUCAGCAACAGAGGAUUGAGCAUCA
B21: 90083140_90083260_1931_CDS_ENSMUSG00000032363_ENSMUST00000113059|mouse|control|control (ssRNA)
RNA: GGGAGUUCUACAGUCCGACGAUCCACCCAUUUAUGGAGCUUGCCCUUGUACAGCAUGCCAUCAAACUGGCUACACUGGGUGUGACGGAAAGAGGGACGGUCCGGCGGGCAGGCUGGCAGGUUGCAGAGCUGGGACCGCUUCCUCAACAGAGGAUUGAGCAUCA
B22: chr4:117558906:117558907:-_ENSMUSG00000033379_ENSMUST00000036380|mus_hu|motif|central (ssRNA)
RNA: GGGAGUUCUACAGUCCGACGAUCUGGAGGAGCCGGUAAUAUAGAUGCCCCAGGCUGCCCCAACCACAGACAGGGAGAUAGCGGGGCCAAUGCCCAGGUUGGACCACAUGAAGGGCGAAGUCUCCGUCAGGAACCUGUUGUGGACAACAGAGGAUUGAGCAUCA

This is one part of the list.

This assay addresses T1, UNK ZnF1-3. Kind of assay: nsRBNS (natural sequence RNA bind-n-seq); RBNS binding buffer (assumed for nsRBNS): 25 mM Tris pH 7.5, 150 mM KCl, 3 mM MgCl2, 0.01% Triton X-100, 500 ug/ml BSA, 20 U/ml SUPERase-In, 4 C; UNK is unkempt and MSI1 is Musashi-1; names of the RNAs are library labels; protein concentration not given here; high values mean tight binding.
For B1, the binding signal turned out to be 0.91 enrichment R.
To B2 belongs 1.49 enrichment R; to B3, 1.3 enrichment R.
In turn, B4 showed a binding signal of 0.873 enrichment R.
Consider B5, for which the binding signal is 2.38 enrichment R.
To B6 belongs 0.663 enrichment R; to B7, 0.648 enrichment R.
To B8 belongs 0.754 enrichment R; to B9, 0.658 enrichment R.
Regarding B10, the binding signal was determined as 1.24 enrichment R.
Then B11, with 0.886 enrichment R; and B12, with 0.722 enrichment R.
B13 returned a binding signal of 0.535 enrichment R.
Then B14, with 0.976 enrichment R; and B15, with 0.524 enrichment R; and B16, with 0.539 enrichment R.
Then B17, with 0.53 enrichment R.
To B18 belongs 0.836 enrichment R; to B19, 1.54 enrichment R.
The molecule B20 came in with a binding signal of 0.654 enrichment R.
To B21 belongs 0.531 enrichment R; to B22, 0.932 enrichment R.
